Test results published in the supplement of paper PMC3334620.
Whole data set: some 33,000 sequences, median “E-score (-0.5 to 0.5)” near -0.012, cut for the highest 2% near 0.27. The list shows a part of the results.

Target: T1, Vhr1 (UniProt P40522)
T1 sequence: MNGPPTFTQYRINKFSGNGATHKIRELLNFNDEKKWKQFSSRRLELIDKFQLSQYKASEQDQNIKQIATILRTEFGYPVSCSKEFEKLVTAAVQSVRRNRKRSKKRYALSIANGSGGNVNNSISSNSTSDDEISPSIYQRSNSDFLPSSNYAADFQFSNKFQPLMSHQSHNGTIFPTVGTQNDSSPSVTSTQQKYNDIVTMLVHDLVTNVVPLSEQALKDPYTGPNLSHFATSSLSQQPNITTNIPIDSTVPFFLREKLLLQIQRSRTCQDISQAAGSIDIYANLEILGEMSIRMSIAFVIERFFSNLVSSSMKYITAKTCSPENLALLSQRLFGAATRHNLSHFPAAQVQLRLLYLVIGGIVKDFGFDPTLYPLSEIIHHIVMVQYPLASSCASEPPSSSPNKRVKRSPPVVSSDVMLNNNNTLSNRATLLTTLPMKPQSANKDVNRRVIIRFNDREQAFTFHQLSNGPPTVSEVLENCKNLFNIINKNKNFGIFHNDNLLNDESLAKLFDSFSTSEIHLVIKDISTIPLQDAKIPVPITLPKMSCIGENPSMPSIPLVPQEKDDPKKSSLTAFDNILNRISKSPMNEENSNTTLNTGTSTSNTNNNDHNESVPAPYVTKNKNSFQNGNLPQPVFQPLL
Assay: PBM E-score (8-mer binding enrichment) (E-score (-0.5 to 0.5)); higher = stronger / more preferred TF binding; most listed sequences are background and not binding sites
Conditions: protein concentration: 200 nM; construct: GST-full length
How it was run: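 For each ungapped eight-base word taken together with its reverse complement, the Universal PBM Analysis Suite assigned an E-score. Binding data came from GST-tagged yeast transcription factors, applied at about 100-200 nM, on universal all-10-mer Agilent arrays made double-stranded by primer extension. Fluorescent anti-GST marked bound protein, and scans were normalised with masliner.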

Q: With ATGCACGC as the sequence, how does the “PBM E-score” value read?
A: -0.0239

Q: Which “PBM E-score” value does the source give for ACCAGGCT here?
A: -0.00278

Q: With GGTTGGAA as the sequence, how does the “PBM E-score” value read?
A: -0.0726

Q: With TGCCCACA as the sequence, how does the “PBM E-score” value read?
A: -0.134

Q: With GCCCCGTA as the sequence, how does the “PBM E-score” value read?
A: -0.312

Q: How did the “PBM E-score” value turn out when GGCCACTA was run?
A: -0.00131

Q: Which “PBM E-score” value does the source give for CAACCCAA here?
A: -0.131

Q: TCCTACAA was tested. Which “PBM E-score” value did it give?
A: 0.107

Q: AGTCGCAG was tested. Which “PBM E-score” value did it give?
A: 0.24

Q: For GAAAGTTA, which “PBM E-score” value is on record?
A: -0.0482

Q: For CATGAGCG, which “PBM E-score” value is on record?
A: 0.0979

Q: How did the “PBM E-score” value turn out when GCCCTAGA was run?
A: -0.332

Q: GACCTATC was tested. Which “PBM E-score” value did it give?
A: 0.0692

Q: Which “PBM E-score” value does the source give for AATAAACT here?
A: 0.0571

Q: AAGCACGC was tested. Which “PBM E-score” value did it give?
A: 0.0803

Q: For ATGAGTAG, which “PBM E-score” value is on record?
A: 0.189

Q: For ACGTTGTC, which “PBM E-score” value is on record?
A: -0.0959

Q: How did the “PBM E-score” value turn out when CGAGACAG was run?
A: 0.235

Q: With TATAGCCA as the sequence, how does the “PBM E-score” value read?
A: 0.119

Q: For CGGCGGCA, which “PBM E-score” value is on record?
A: -0.0208

Q: How did the “PBM E-score” value turn out when CGGCAGTC was run?
A: 0.185

Q: Which “PBM E-score” value does the source give for CCAGTTCC here?
A: -0.0688

Q: For AAAGATCT, which “PBM E-score” value is on record?
A: -0.249

Q: Which “PBM E-score” value does the source give for TACTTATA here?
A: -0.0199

Q: With CATGTCGA as the sequence, how does the “PBM E-score” value read?
A: 0.0467

Q: Which “PBM E-score” value does the source give for TAATTTGA here?
A: -0.288

Q: With AAACCTTT as the sequence, how does the “PBM E-score” value read?
A: -0.27

Q: With ATACGTTG as the sequence, how does the “PBM E-score” value read?
A: 0.0231

Q: With CGCATCAC as the sequence, how does the “PBM E-score” value read?
A: -0.0716

Q: For ATCTCGCC, which “PBM E-score” value is on record?
A: 0.0271

Q: Which “PBM E-score” value does the source give for TCCGGCCA here?
A: -0.194

Q: With ATCAATAA as the sequence, how does the “PBM E-score” value read?
A: 0.0138

Q: With CGCTGCGC as the sequence, how does the “PBM E-score” value read?
A: -0.0366

Q: For AAGTCGAA, which “PBM E-score” value is on record?
A: -0.147

Q: Which “PBM E-score” value does the source give for CGTCAAAC here?
A: -0.198

Q: How did the “PBM E-score” value turn out when AACCGCTA was run?
A: 0.0759

Q: Which “PBM E-score” value does the source give for AACCAATT here?
A: 0.0547

Q: For AAGCTAGT, which “PBM E-score” value is on record?
A: -0.0022

Q: CTTTGAAA was tested. Which “PBM E-score” value did it give?
A: -0.0938

Q: How did the “PBM E-score” value turn out when TCAGTCCA was run?
A: -0.18

Q: How did the “PBM E-score” value turn out when GCTGTCCA was run?
A: 0.129

Q: How did the “PBM E-score” value turn out when CGCAGGCG was run?
A: -0.0219

Q: With ACGAGACC as the sequence, how does the “PBM E-score” value read?
A: 0.00017

Q: For AGCGATAG, which “PBM E-score” value is on record?
A: -0.06

Q: CCATGTTA was tested. Which “PBM E-score” value did it give?
A: 0.0466

Q: CCTCGTAA was tested. Which “PBM E-score” value did it give?
A: 0.0858

Q: For AACTTCTA, which “PBM E-score” value is on record?
A: -0.275

Q: For TAATACCA, which “PBM E-score” value is on record?
A: 0.24

Q: AGCGTCGG was tested. Which “PBM E-score” value did it give?
A: -0.0578

Q: ACAGAGAG was tested. Which “PBM E-score” value did it give?
A: -0.134

Q: Which “PBM E-score” value does the source give for CCAGTTTA here?
A: -0.0407

Q: Which “PBM E-score” value does the source give for CAGGGCGG here?
A: 0.0854

Q: With AACAACGA as the sequence, how does the “PBM E-score” value read?
A: 0.106

Q: GCGGTCAC was tested. Which “PBM E-score” value did it give?
A: -0.00992

Q: With AGGTCACA as the sequence, how does the “PBM E-score” value read?
A: 0.0779

Q: Which “PBM E-score” value does the source give for AATGACAA here?
A: -0.0336

Q: With TAGGCGAA as the sequence, how does the “PBM E-score” value read?
A: -0.0941

Q: AGGACCTA was tested. Which “PBM E-score” value did it give?
A: -0.0256

Q: With AGTCTGTC as the sequence, how does the “PBM E-score” value read?
A: -0.22

Q: With ACTAGTGG as the sequence, how does the “PBM E-score” value read?
A: -0.0245

Q: With ATAGCAAC as the sequence, how does the “PBM E-score” value read?
A: 0.0326

Q: AAGAGGGA was tested. Which “PBM E-score” value did it give?
A: -0.21

Q: How did the “PBM E-score” value turn out when CGACGCAA was run?
A: -0.00998

Q: How did the “PBM E-score” value turn out when TCGCCGCA was run?
A: -0.0173

Q: AGAGACGG was tested. Which “PBM E-score” value did it give?
A: 0.0592

Q: Which “PBM E-score” value does the source give for AGGTGTGA here?
A: 0.18

Q: ACTGAACT was tested. Which “PBM E-score” value did it give?
A: 0.00624

Q: Which “PBM E-score” value does the source give for AGGCTGCA here?
A: -0.203

Q: How did the “PBM E-score” value turn out when GACCTATA was run?
A: 0.186

Q: How did the “PBM E-score” value turn out when CAGGTTGC was run?
A: 0.0612

Q: With CCGGCTAG as the sequence, how does the “PBM E-score” value read?
A: -0.272

Q: GGCCACCC was tested. Which “PBM E-score” value did it give?
A: 0.0977

Q: Which “PBM E-score” value does the source give for GGGAGAAA here?
A: -0.157

Q: GTGTATTA was tested. Which “PBM E-score” value did it give?
A: 0.187

Q: Which “PBM E-score” value does the source give for AGTGCACT here?
A: -0.0722

Q: Which “PBM E-score” value does the source give for CACATTGG here?
A: -0.0497

Q: With ATCAATCA as the sequence, how does the “PBM E-score” value read?
A: 0.248

Q: How did the “PBM E-score” value turn out when CGGCTGAA was run?
A: 0.0611

Q: For ATCTGGAG, which “PBM E-score” value is on record?
A: -0.171

Q: With TAGGTTGA as the sequence, how does the “PBM E-score” value read?
A: 0.0773

Q: Which “PBM E-score” value does the source give for CCGTGTGC here?
A: 0.127

Q: How did the “PBM E-score” value turn out when GCAAGACC was run?
A: -0.236

Q: With CCTTCGGC as the sequence, how does the “PBM E-score” value read?
A: -0.0703

Q: With CGCAGCCC as the sequence, how does the “PBM E-score” value read?
A: -0.0482

Q: GGACAGCC was tested. Which “PBM E-score” value did it give?
A: 0.119

Q: With GGCCGACA as the sequence, how does the “PBM E-score” value read?
A: -0.138
